From PMC10320511
These are yes or no findings as the source states them, for the method shown. Binding seen in cells or lysates may run through a third protein. Where a sequence is shown, tags or fusion partners need not be part of it.

The chains behind the UniProt entries cited, without tags or fusion partners.
UniProt Q01371: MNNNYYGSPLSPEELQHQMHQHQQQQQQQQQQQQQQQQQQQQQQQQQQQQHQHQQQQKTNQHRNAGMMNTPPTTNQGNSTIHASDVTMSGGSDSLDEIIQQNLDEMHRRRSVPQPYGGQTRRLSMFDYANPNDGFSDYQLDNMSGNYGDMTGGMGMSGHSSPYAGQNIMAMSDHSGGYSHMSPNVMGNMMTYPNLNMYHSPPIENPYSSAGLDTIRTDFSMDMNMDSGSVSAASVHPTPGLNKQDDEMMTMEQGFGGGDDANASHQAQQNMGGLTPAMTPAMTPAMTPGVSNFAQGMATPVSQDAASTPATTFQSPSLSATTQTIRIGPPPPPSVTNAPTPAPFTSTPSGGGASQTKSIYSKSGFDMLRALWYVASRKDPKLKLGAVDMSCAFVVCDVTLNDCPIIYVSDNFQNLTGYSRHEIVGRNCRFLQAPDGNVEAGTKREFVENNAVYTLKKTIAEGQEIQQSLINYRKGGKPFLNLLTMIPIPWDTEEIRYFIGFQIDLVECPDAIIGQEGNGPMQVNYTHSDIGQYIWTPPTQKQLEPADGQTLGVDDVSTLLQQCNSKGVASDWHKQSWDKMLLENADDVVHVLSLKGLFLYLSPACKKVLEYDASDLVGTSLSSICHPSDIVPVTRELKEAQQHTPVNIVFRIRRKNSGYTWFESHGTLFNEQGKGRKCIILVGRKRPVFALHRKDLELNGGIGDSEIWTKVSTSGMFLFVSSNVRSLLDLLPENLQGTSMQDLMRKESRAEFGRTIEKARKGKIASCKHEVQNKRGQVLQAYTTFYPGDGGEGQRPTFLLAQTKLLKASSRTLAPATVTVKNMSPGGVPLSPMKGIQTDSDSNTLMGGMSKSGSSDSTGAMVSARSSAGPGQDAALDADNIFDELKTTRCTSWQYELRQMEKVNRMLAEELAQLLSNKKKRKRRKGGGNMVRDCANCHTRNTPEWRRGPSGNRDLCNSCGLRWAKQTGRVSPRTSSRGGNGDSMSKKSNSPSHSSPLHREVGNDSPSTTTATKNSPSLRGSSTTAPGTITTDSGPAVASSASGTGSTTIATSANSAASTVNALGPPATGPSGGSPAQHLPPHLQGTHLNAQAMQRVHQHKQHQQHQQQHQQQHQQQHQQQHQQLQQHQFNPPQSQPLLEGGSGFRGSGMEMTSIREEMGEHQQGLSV

Columns and labels:
Test in all cases: co-IP; V5H6-tagged FRQ (wild type or mutant) pulled down with V5 agarose from Neurospora lysate (cultures in the light, 25 °C); 50 mM Hepes pH 7.4, 137 mM NaCl, 10% glycerol, 0.4% NP-40; 4 °C, 2 h; Western blot with FRQ, FRH, WC-1 and WC-2 antibodies
[1] = biological target: T1, FRQ 1–558, V5H6-tagged (Neurospora crassa) (UniProt P19970)
T1 sequence: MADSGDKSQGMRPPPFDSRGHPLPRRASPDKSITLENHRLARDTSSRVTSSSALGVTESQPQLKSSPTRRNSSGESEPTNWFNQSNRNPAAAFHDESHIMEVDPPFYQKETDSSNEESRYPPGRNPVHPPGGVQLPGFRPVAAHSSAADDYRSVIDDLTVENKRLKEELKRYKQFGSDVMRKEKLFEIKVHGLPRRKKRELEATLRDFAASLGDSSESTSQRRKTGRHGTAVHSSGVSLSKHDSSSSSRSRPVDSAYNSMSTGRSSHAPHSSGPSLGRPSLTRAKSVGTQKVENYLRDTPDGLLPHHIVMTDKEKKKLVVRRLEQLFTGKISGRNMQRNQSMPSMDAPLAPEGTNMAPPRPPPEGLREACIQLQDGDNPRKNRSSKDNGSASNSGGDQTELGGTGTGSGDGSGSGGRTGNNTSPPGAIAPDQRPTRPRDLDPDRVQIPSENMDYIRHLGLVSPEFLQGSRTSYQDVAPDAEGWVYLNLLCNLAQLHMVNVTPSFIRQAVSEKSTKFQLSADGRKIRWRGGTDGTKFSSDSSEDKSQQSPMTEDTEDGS

[2] = biological target: T2, FRQ Δ647–690, V5H6-tagged (Neurospora crassa) (UniProt P19970)
T2 sequence: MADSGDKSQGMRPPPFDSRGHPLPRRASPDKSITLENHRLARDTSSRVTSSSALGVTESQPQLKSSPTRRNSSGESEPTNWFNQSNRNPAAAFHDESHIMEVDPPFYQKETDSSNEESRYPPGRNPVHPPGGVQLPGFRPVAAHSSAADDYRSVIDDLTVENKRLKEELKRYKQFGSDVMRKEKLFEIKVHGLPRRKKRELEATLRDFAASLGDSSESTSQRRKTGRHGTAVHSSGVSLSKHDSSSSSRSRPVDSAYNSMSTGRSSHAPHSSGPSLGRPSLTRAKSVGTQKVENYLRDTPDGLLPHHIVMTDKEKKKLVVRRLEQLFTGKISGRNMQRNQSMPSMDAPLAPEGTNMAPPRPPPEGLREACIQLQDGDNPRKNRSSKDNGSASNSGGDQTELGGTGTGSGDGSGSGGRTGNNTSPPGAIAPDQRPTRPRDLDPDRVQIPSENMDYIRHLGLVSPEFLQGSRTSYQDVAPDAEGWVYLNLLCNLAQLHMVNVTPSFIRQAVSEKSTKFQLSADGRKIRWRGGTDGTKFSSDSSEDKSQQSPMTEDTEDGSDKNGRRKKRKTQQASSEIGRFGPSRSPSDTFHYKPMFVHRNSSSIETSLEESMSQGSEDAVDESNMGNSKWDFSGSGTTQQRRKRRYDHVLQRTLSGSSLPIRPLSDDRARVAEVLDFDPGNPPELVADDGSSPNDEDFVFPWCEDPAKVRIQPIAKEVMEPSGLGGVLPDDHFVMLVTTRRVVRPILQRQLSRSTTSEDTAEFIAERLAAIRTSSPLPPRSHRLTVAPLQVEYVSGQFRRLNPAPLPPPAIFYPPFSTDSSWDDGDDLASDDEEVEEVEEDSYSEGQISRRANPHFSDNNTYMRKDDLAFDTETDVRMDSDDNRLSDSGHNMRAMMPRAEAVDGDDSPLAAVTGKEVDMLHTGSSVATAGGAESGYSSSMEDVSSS

[3] = biological target: T3, FRQ Δ775–800, V5H6-tagged (Neurospora crassa) (UniProt P19970)
T3 sequence: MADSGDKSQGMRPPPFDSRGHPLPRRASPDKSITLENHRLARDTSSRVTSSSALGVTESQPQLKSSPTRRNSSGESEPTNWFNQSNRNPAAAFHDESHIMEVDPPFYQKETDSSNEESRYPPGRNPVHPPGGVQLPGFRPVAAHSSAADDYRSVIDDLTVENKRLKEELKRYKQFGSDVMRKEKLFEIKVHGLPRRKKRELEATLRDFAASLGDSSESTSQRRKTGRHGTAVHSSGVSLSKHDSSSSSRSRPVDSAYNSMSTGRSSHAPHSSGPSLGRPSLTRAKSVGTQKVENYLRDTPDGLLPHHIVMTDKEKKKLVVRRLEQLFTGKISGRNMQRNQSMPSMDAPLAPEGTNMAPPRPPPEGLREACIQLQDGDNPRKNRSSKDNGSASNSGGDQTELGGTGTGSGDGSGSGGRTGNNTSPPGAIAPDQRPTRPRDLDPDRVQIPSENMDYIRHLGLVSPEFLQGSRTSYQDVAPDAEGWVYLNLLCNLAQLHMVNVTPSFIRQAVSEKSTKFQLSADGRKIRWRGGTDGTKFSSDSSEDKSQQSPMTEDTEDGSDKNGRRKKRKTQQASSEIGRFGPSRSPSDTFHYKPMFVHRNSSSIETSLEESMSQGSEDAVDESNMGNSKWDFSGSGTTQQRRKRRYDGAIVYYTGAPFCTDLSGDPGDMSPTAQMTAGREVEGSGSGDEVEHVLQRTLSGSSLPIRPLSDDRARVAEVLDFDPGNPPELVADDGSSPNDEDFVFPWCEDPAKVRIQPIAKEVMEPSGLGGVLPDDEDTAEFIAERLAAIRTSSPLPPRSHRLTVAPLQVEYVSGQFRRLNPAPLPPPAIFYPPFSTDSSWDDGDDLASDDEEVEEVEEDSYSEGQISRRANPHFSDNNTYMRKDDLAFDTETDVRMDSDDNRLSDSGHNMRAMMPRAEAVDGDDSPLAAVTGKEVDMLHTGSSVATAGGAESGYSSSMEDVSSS

- binding [1]: no binding
- binding [2]: no binding
- binding [3]: no binding
Substance: White Collar-1 (WC-1) (from UniProt Q01371 1-1167)
